Test results: patent US12325690B2, “Compounds for the reducing lipotoxic damage” (Mayo Foundation for Medical Education and Research, priority 2017, dated 2025)

How the values were obtained:
pancreatic lysate lipase = molecular target: T1, pancreatic lysate lipase (Mus musculus, UniProt Q6P8U6); experiment: Lipase activity assay with pancreatic lysate (commercial Pointe scientific lipase assay); assay type: biochemical; conditions: solution stored overnight at room temperature
T1 construct: efficacy against mouse pancreatic lysates; other: summary of strengths of 767; efficacy as a solution when left overnight; other: solution left overnight; efficacy in the lipase activity assay compared with orlistat when fresh; other: fresh solution; IC50 of orlistat after overnight incubation (nearest tested concentration); other: after overnight incubation; improvement in stability and e
T1 sequence (Q6P8U6 17-465): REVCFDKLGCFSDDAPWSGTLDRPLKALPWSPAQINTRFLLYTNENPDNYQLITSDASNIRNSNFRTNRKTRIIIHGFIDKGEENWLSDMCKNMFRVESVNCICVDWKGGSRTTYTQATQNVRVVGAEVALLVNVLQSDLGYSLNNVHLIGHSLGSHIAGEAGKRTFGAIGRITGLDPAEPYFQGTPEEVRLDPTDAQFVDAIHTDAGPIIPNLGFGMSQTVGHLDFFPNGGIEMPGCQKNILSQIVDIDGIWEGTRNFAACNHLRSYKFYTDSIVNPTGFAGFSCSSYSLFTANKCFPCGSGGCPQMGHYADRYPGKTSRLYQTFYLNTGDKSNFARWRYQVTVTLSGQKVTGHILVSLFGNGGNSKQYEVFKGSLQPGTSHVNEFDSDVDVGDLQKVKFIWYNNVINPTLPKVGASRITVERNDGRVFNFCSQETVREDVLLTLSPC
Procedure: To test the efficacy of these compounds, the agents were dissolved as a 20 mM stock in ethanol, and further diluted to in PBS as a 600 micromolar working stock (3.3% ethanol). This was either used immediately or left at room temperature for 16-20 hours overnight before retesting efficacy. The agents were incubated with a pancreatic lysate in serial ⅓ dilutions spanning a range of 200 to 0.3 micromolars for 30 minutes. 5 microliters of these mixtures were then used to measure lipase activity using a commercial lipase assay (Pointe scientific) containing a monoacyl glycerol lipase in the reagent. The lipase assay was done using reagents in proportion to the recommended protocol. Values were depicted as % maximal lipase activity of the well without any inhibitor.

[1] = test system: acinar cells in acinar-adipocyte co-culture; conditions: 66 micromolars

Structure (SMILES) | improvement in stability and efficacy over orlistat after overnight storage (pancreatic lysate lipase) | toxicity to acinar cells [1] | efficacy in reducing lipotoxic damage to acinar cells ([1]; acinar-adipocyte co-culture)
CCCCCCCCCCC[C@@H](C[C@@H]1OC(=O)[C@H]1CCCCCC)OC(=O)[C@H](COC=O)NC=O [Compound 736] | approximately 10 fold |  | 
CCCCCCCCCCC[C@@H](C[C@@H]1OC(=O)[C@H]1CCCCCC)OC(=O)[C@H](C)NC=O [Compound 741] | approximately 10 fold | least toxic | retaining its efficacy
